The values below come from the supplement of paper PMC12217912.

This is one part of the list. Sequences were assembled here from the parent chain. Inactive controls read about 0.05.

To fix the notation:
B1: TEV protease; numbered along this chain (parent)
chain: MGESLFKGPRDYNPISSSICHLTNESDGHTTSLYGIGFGPFIITNKHLFRRNNGTLVVQSLHGVFKVKDTTTLQQHLVDGRDMIIIRMPKDFPPFPQKLKFREPQREERICLVTTNFQTKSMSSMVSDTSCTFPSGDGIFWKHWIQTKDGQCGSPLVSTRDGFIVGIHSASNFTNTNNYFTSVPKNFMELLTNQEAQQWVSGWRLNADSVLWGGHKVFMVKPEEPFQPVKEATQL

The variants in the test derive from B1. As to the kind of experiment: raw area under fraction-flipped curve 0-4 h after induction (AUC4h, not background-subtracted), DNA-recorder readout of cleavage of the substrate (dimensionless); higher = more cleavage of the substrate by the protease variant. Conditions: temperature: 34 °C; time window: 0-4 h after rhamnose induction.
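Further: Bxb1 expression induced with 0.2% (w/v) L-rhamnose at OD600 near 0.5, cultures sampled hourly, flipped fraction per protease–substrate barcode pair counted by paired-end Illumina sequencing.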

Take MGESLFKGPRDYNPISSSICHLTNESDYHTTSLYGIGFGPFIITNKHLFRRNNGTLVVQSLHGVFKVKDTTTLQQHLVDGRDMIIIRMPKDFPPFPQKLKFREPQREERICLVTTNFQTKSMSSMVSDTSCTFPSGDGIFWKHWIQTKDGQCGSPLVSTRDGFIVGIHSASNFTNTNNYFTSVPKNFMELLTNQEAQQWVSGWRLNADSVLWGGHKVFMVKPEEPFQPVKEATQL [G28Y]: the “area with substrate ENLYDQS” value stood at 0.0674, the “area with substrate ENLYEQS” value came out at 0.0703, the “area with substrate ENLYGQS” value worked out at 0.067 and the “area with substrate ENLYHQS” value came out at 0.0578. Moreover, the “area with substrate ENLYIQS” value was 0.0699, the “area with substrate ENLYKQS” value came to 0.0785, the “area with substrate ENLYMQS” value is 0.0918 and the “area with substrate ENLYNQS” value amounted to 0.0449. Also, the “area with substrate ENLYQQS” value is 0.0512, the “area with substrate ENLYRQS” value was determined as 0.0588, the “area with substrate ENLYSQS” value came to 0.0833 and the “area with substrate ENLYTQS” value amounted to 0.0555. For the same variant, the “area with substrate ENLYVQS” value stood at 0.121, the “area with substrate ENLYWQS” value was determined as 0.0609 and the “area with substrate ENLYYQS” value is 0.0524.

For MGESLFKGPRDYNPISSSICHLTNESDGHTTSLYGIGFGPFIITNKHLFRRNNGTLIVQSLHGVFKVKDTTTLQQHLVDGRDMIIIRMPKDFPPFPQKLKFREPQREERICLVTTNFQTKSMSSMVSDTSCTFPSGDGIFWKHWIQTKDGQCGSPLVSTRDGFIVGIHSASNFTNTNNYFTSVPKNFMELLTNQEAQQWVSGWRLNADSVLWGGHKVFMVKPEEPFQPVKEATQL [V57I], the “area with substrate ENLYDQS” value came out at 0.0704, the “area with substrate ENLYEQS” value was 0.0549, the “area with substrate ENLYGQS” value amounted to 0.0713 and the “area with substrate ENLYHQS” value stood at 0.0699. In addition, the “area with substrate ENLYIQS” value turned out to be 0.136, the “area with substrate ENLYKQS” value turned out to be 0.0711, the “area with substrate ENLYMQS” value amounted to 0.111 and the “area with substrate ENLYPQS” value was 0.0912. For the same variant, the “area with substrate ENLYQQS” value worked out at 0.0737, the “area with substrate ENLYSQS” value is 0.0797, the “area with substrate ENLYTQS” value was determined as 0.0877 and the “area with substrate ENLYVQS” value was 0.12. The “area with substrate ENLYWQS” value was determined as 0.0815 and the “area with substrate ENLYYQS” value was 0.0709.

On to MGESLFKGPRDYNPISSSICHLTNESDGHTTSLYGIGFGPFIITNKHLFRRNNGTLVVQSLHGVFEVKDTTTLQQHLVDGRDMIIIRMPKDFPPFPQKLKFREPQREERICLVTTNFQTKSMSSMVSDTSCTFPSGDGIFWKHWIQTKDGQCGSPLVSTRDGFIVGIHSASNFTNTNNYFTSVPKNFMELLTNQEAQQWVSGWRLNADSVLWGGHKVFMVKPEEPFQPVKEATQL [K66E], for which the “area with substrate ENLYDQS” value came to 0.0394, the “area with substrate ENLYEQS” value is 0.0687, the “area with substrate ENLYGQS” value was 0.0606 and the “area with substrate ENLYIQS” value stood at 0.0884. Also, the “area with substrate ENLYKQS” value is 0.0651, the “area with substrate ENLYPQS” value stood at 0.0807, the “area with substrate ENLYRQS” value amounted to 0.0639 and the “area with substrate ENLYWQS” value was determined as 0.0649. In addition, the “area with substrate ENLYYQS” value stood at 0.068.

MGESLFKGPRDYNPISSSICHLTNESDGHTTSLYGIGFGPFIITNKHLFRRNNGTLVVQSLHGVFWVKDTTTLQQHLVDGRDMIIIRMPKDFPPFPQKLKFREPQREERICLVTTNFQTKSMSSMVSDTSCTFPSGDGIFWKHWIQTKDGQCGSPLVSTRDGFIVGIHSASNFTNTNNYFTSVPKNFMELLTNQEAQQWVSGWRLNADSVLWGGHKVFMVKPEEPFQPVKEATQL [K66W]: the “area with substrate ENLYDQS” value was found to be 0.0441, the “area with substrate ENLYEQS” value stood at 0.0454, the “area with substrate ENLYGQS” value was determined as 0.0601 and the “area with substrate ENLYHQS” value stood at 0.0527. In addition, the “area with substrate ENLYIQS” value worked out at 0.0806, the “area with substrate ENLYMQS” value worked out at 0.0808, the “area with substrate ENLYNQS” value was 0.0774 and the “area with substrate ENLYPQS” value was 0.094. Besides, the “area with substrate ENLYRQS” value was found to be 0.0617, the “area with substrate ENLYSQS” value was determined as 0.0771, the “area with substrate ENLYVQS” value came to 0.12 and the “area with substrate ENLYYQS” value was 0.0692.

Consider MGESLFYGPRDYNPISSSICHLTNESDGHTTSLYGIGFGPFIITNKHLFRRNNGTLVVQSLHGVFKVKDTTTLQQHLVDGRDMIIIRMPKDFPPFPQKLKFREPQREERICLVTTNFQTKSMSSMVSDTSCTFPSGDGIFWKHWIQTKDGQCGSPLVSTRDGFIVGIHSASNFTNTNNYFTSVPKNFMELLTNQEAQQWVSGWRLNADSVLWGGHKVFMVKPEEPFQPVKEATQL [K7Y], for which the “area with substrate ENLYDQS” value is 0.118, the “area with substrate ENLYEQS” value is 0.0741, the “area with substrate ENLYIQS” value came out at 0.142 and the “area with substrate ENLYNQS” value amounted to 0.0596. For the same variant, the “area with substrate ENLYVQS” value worked out at 0.0981, the “area with substrate ENLYWQS” value came out at 0.0924 and the “area with substrate ENLYYQS” value was determined as 0.065.

For the variant MGESLFVGPRDYNPISSSICHLTNESDGHTTSLYGIGFGPFIITNKHLFRRNNGTLVVQSLHGVFKVKDTTTLQQHLVDGRDMIIIRMPKDFPPFPQKLKFREPQREERICLVTTNFQTKSMSSMVSDTSCTFPSGDGIFWKHWIQTKDGQCGSPLVSTRDGFIVGIHSASNFTNTNNYFTSVPKNFMELLTNQEAQQWVSGWRLNADSVLWGGHKVFMVKPEEPFQPVKEATQL [K7V], the “area with substrate ENLYDQS” value is 0.0442, the “area with substrate ENLYEQS” value worked out at 0.0684, the “area with substrate ENLYGQS” value came out at 0.0667 and the “area with substrate ENLYIQS” value was 0.105. The “area with substrate ENLYNQS” value was determined as 0.0661, the “area with substrate ENLYQQS” value came to 0.0686, the “area with substrate ENLYSQS” value amounted to 0.0682 and the “area with substrate ENLYVQS” value turned out to be 0.0751. In addition, the “area with substrate ENLYYQS” value stood at 0.0604.

For the variant MGESLFKGPRDYNPISSSICHLTNESDGHTTSLYGIGFGPFIITNKHLFRSNNGTLVVQSLHGVFKVKDTTTLQQHLVDGRDMIIIRMPKDFPPFPQKLKFREPQREERICLVTTNFQTKSMSSMVSDTSCTFPSGDGIFWKHWIQTKDGQCGSPLVSTRDGFIVGIHSASNFTNTNNYFTSVPKNFMELLTNQEAQQWVSGWRLNADSVLWGGHKVFMVKPEEPFQPVKEATQL [R51S], the “area with substrate ENLYDQS” value amounted to 0.0584, the “area with substrate ENLYEQS” value turned out to be 0.0659, the “area with substrate ENLYIQS” value turned out to be 0.144 and the “area with substrate ENLYKQS” value turned out to be 0.0669. The “area with substrate ENLYMQS” value was determined as 0.0745, the “area with substrate ENLYNQS” value was 0.0682 and the “area with substrate ENLYRQS” value came out at 0.0659.

Consider MGESLFKGPRDYNPISSSICHLTNESDGHTTSLYGIGFGPFIITNKHLFRNNNGTLVVQSLHGVFKVKDTTTLQQHLVDGRDMIIIRMPKDFPPFPQKLKFREPQREERICLVTTNFQTKSMSSMVSDTSCTFPSGDGIFWKHWIQTKDGQCGSPLVSTRDGFIVGIHSASNFTNTNNYFTSVPKNFMELLTNQEAQQWVSGWRLNADSVLWGGHKVFMVKPEEPFQPVKEATQL [R51N], for which the “area with substrate ENLYDQS” value amounted to 0.0647, the “area with substrate ENLYHQS” value was 0.0669, the “area with substrate ENLYNQS” value was determined as 0.0751 and the “area with substrate ENLYVQS” value is 0.0652.

In the case of MGESLFKGPRDYNPISSSICHLTNESDGHTTSLYGIGFGPFIITNKHLFRRNNGTLVLQSLHGVFKVKDTTTLQQHLVDGRDMIIIRMPKDFPPFPQKLKFREPQREERICLVTTNFQTKSMSSMVSDTSCTFPSGDGIFWKHWIQTKDGQCGSPLVSTRDGFIVGIHSASNFTNTNNYFTSVPKNFMELLTNQEAQQWVSGWRLNADSVLWGGHKVFMVKPEEPFQPVKEATQL [V58L], the “area with substrate ENLYDQS” value worked out at 0.0589, the “area with substrate ENLYEQS” value is 0.0567, the “area with substrate ENLYHQS” value turned out to be 0.0722 and the “area with substrate ENLYIQS” value came to 0.126. Besides, the “area with substrate ENLYKQS” value was 0.065, the “area with substrate ENLYPQS” value worked out at 0.0715, the “area with substrate ENLYTQS” value is 0.0773 and the “area with substrate ENLYVQS” value was 0.133. Further, the “area with substrate ENLYWQS” value is 0.113 and the “area with substrate ENLYYQS” value was 0.0667.

MGESLFKGPRDYNPISSSICHLTNESDGHTTSDYGIGFGPFIITNKHLFRRNNGTLVVQSLHGVFKVKDTTTLQQHLVDGRDMIIIRMPKDFPPFPQKLKFREPQREERICLVTTNFQTKSMSSMVSDTSCTFPSGDGIFWKHWIQTKDGQCGSPLVSTRDGFIVGIHSASNFTNTNNYFTSVPKNFMELLTNQEAQQWVSGWRLNADSVLWGGHKVFMVKPEEPFQPVKEATQL [L33D]: the “area with substrate ENLYDQS” value was determined as 0.0758, the “area with substrate ENLYEQS” value is 0.0644, the “area with substrate ENLYGQS” value was 0.0619 and the “area with substrate ENLYHQS” value amounted to 0.0605. For the same variant, the “area with substrate ENLYIQS” value was determined as 0.0692, the “area with substrate ENLYKQS” value came out at 0.0694, the “area with substrate ENLYMQS” value came to 0.0522 and the “area with substrate ENLYNQS” value was 0.054. Besides, the “area with substrate ENLYPQS” value was 0.0581, the “area with substrate ENLYRQS” value worked out at 0.0607, the “area with substrate ENLYTQS” value was 0.0538 and the “area with substrate ENLYVQS” value was determined as 0.0589. The “area with substrate ENLYWQS” value came out at 0.058 and the “area with substrate ENLYYQS” value amounted to 0.0602.
